Reference: PubChem BioAssay (Tox21)
Several values for one entry are separate records, joined by “and”; a condition that tells them apart may be missing. Identical values can stand only once. This list was built around the results that the source calls inconclusive (neither active nor inactive); the mix of calls is not that of the screen. For some assays here: No potency is given beside an inconclusive call; the fits are too rough. Activity calls are given as the source filed them. Unless noted, calls come from the whole dose curve; as a rule, active = well fitted curve in the direction sought with a large enough effect in the repeat runs; inconclusive = weak or mixed curves; inactive = no such curve, though single readings can be large; an effect the other way counts as inactive or inconclusive.

Experiments:
[1] = qHTS assay to identify small molecule antagonists of the thyroid receptor (TR) signaling pathway - cell viability counter screen (AID 743064); conditions: GH3.TRE-Luc viability, CellTiter-Fluor, 24 h; activity change, negative = cytotoxic: at 70.3 µM (top of the series) unless noted; note: nearly all actives have a fitted effect of over 50% in size; note: potency is the fitted concentration of half-maximal effect; for activity change, negative = cytotoxic: % is set by controls: 0 for no effect and ±100 for the full control effect
Method in brief: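 Plate GH3.TRE-Luc cells; incubate 4 h at 37 °C; add compound, then T3 to 1 nM final; incubate 23.5 h; add CellTiter-Fluor; incubate 30 min at 37 °C, 5% CO2; read fluorescence.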

[2] = qHTS assay to identify small molecule antagonists of the thyroid receptor (TR) signaling pathway (AID 743065); note: nearly all actives have a fitted effect of over 55% in size; note: potency is the fitted concentration of half-maximal effect; for activity, negative = inhibition: % is set by controls: 0 for no effect and ±100 for the full control effect
Method in brief: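 Antagonism measured as loss of luciferase signal in GH3 cells stably carrying a TRE-luciferase reporter, co-treated with compound and T3 (1 nM final) for 23.5 h at 37 C. Viability was read in the same well by CellTiter-Fluor.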

[3] = qHTS assay to identify small molecule antagonists of the estrogen receptor alpha (ER-alpha) signaling pathway - cell viability counter screen (AID 743074; calls by dose curve; note: nearly all actives have a fitted effect of over 45% in size; note: potency is the fitted concentration of half-maximal effect)
[4] = tested on: thyroid hormone receptor (rat, GH3 cells); assay: qHTS assay to identify small molecule agonists of the thyroid receptor (TR) signaling pathway (AID 743066; calls by dose curve; note: % is set by controls: 0 for no effect and ±100 for the full control effect); conditions: GH3.TRE-Luc cells, TR agonist luciferase, 24 h
[5] = qHTS assay to identify small molecule antagonists of the estrogen receptor alpha (ER-alpha) signaling pathway using the BG1 cell line - cell viability counter screen (AID 743081);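 note: compound given together with 17beta-estradiol as the ER stimulus; potency is the fitted concentration of half-maximal effect; nearly all actives have a fitted effect of over 45% in size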
[6] = biological target: Estrogen receptor (Homo sapiens) (UniProt P03372); assay: qHTS assay to identify small molecule antagonists of the estrogen receptor alpha (ER-alpha) signaling pathway (AID 743069; active = well fitted curve in the direction sought with a large enough effect in the signal ratio in the repeat runs, not every such curve was filed as active; inconclusive = weak or mixed curves, or effect the other way; inactive = no such curve, though single readings can be large or run the other way; the % refers to the signal ratio; note: % is set by controls: 0 for no effect and ±100 for the full control effect); conditions: HEK293 ER-alpha-UAS-bla, beta-lactamase ratio, antagonist mode; activity, negative = inhibition: at 69.4 µM (top of the series) unless noted
Method in brief: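 Fluorescence intensity from a beta-lactamase FRET substrate served as the read-out. Cells: HEK293 with stably integrated ER-alpha-UAS-bla reporter. Agonist 17beta-estradiol was co-added with compounds; incubation 18 hr at 37C, substrate 2 hr at room temperature.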

[7] = biological target: Estrogen receptor (Homo sapiens) (UniProt P03372); assay: qHTS assay to identify small molecule agonists of the estrogen receptor alpha (ER-alpha) signaling pathway using the BG1 cell line (AID 743079); conditions: BG1Luc4E2 cells, ERE-luciferase agonist, 22 h; activation: at 70.3 µM (top of the series) unless noted; note: potency is the fitted concentration of half-maximal effect; nearly all actives have a fitted effect of over 20% in size
[8] = qHTS assay to identify aromatase inhibitors - cell viability counter screen (AID 743084); conditions: MCF-7 aro ERE viability, CellTiter-Fluor, 24 h; activity change, negative = cytotoxicity: at 70.3 µM (top of the series);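 note: cells stimulated with testosterone during compound exposure; % is set by controls: 0 for no effect and ±100 for the full control effect; nearly all actives have a fitted effect of over 55% in size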
[9] = activation: at 83.9 µM (top of the series) unless noted
Tags give direction and shape of the fitted curve.

Chain of UniProt P03372 (P03372 whole entry, looked up): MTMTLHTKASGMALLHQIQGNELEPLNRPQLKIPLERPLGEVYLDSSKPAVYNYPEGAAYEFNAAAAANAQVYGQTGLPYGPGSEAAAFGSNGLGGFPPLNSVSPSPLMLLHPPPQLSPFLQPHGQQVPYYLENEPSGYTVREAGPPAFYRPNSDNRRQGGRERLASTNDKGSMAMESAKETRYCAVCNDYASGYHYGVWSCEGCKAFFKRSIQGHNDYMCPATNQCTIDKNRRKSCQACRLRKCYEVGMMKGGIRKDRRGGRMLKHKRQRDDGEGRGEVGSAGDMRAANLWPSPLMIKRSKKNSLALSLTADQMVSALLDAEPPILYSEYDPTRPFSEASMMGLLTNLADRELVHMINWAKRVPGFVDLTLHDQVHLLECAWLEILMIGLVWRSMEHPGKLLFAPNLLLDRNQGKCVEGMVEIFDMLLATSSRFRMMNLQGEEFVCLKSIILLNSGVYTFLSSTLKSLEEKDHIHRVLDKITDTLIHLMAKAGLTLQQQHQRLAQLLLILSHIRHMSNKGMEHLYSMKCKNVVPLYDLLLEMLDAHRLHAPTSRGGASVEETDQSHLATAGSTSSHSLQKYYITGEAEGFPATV

## CC(C)CCCC(C)(C)O
[1]
  Potency: inactive

## C=C(C)C1CC=C(C)C(=O)C1 (stereo not drawn)
[1]
  Potency: inconclusive [rising, partial curve, poor fit]
[2]
  Potency: inactive
[3]
  Potency: inactive

## O=[N+]([O-])c1cccc(Cl)c1
[1]
  Potency: inconclusive [rising, single point]
[3]
  Potency: inconclusive [cytotoxic, single point]

## CC[C@H]1OC(=O)[C@H](C)[C@@H](O[C@H]2C[C@@](C)(OC)[C@@H](O)[C@H](C)O2)[C@H](C)[C@@H](O[C@@H]2O[C@H](C)C[C@H](N(C)C)[C@H]2O)[C@](C)(O)C[C@@H](C)CN(C)[C@H](C)[C@@H](O)[C@]1(C)O
[1]
  Potency: active: 29.8 µM and active: 40.5 µM
[4]; [9]
  activation: inconclusive: -6.71% [phenotype inactive]
[4]; at 83.9 µM (top of the series)
  activation: inactive: -8.91%
[5]
  Potency: inconclusive [cytotoxic, partial curve]

## C=CCCCCCCCCO
[1]
  Potency: inactive
[2]
  Potency: inactive

## Cc1cc(S(=O)(=O)O)ccc1N=Nc1c(O)ccc2ccccc12
[1]
  Potency: active: 17.2 µM
[2]
  Potency: inconclusive [inhibitor, partial curve, poor fit]
[4]; [9]
  Potency: inactive
[5]
  Potency: active: 30.6 µM

## OCCCCCCCl
[1]
  Potency: inactive
[2]
  Potency: inactive
[6]
  Potency: inactive
[7]
  Potency: inconclusive [activator, partial curve, poor fit]

## CCN(C(=O)c1cc(C)cc(OC[C@H](C)Nc2ccncc2)c1)C(C)C
[1]
  Potency: inconclusive [rising, partial curve, poor fit]
[2]
  Potency: inconclusive [inhibitor, single point]
[8]
  Potency: inactive
